This is one part of the list. Sequences were assembled here from the parent chain. Inactive controls read about 0.05.
B1: TEV protease; numbered along this chain (parent)
chain: MGESLFKGPRDYNPISSSICHLTNESDGHTTSLYGIGFGPFIITNKHLFRRNNGTLVVQSLHGVFKVKDTTTLQQHLVDGRDMIIIRMPKDFPPFPQKLKFREPQREERICLVTTNFQTKSMSSMVSDTSCTFPSGDGIFWKHWIQTKDGQCGSPLVSTRDGFIVGIHSASNFTNTNNYFTSVPKNFMELLTNQEAQQWVSGWRLNADSVLWGGHKVFMVKPEEPFQPVKEATQL

Variants of: B1
Test: raw area under fraction-flipped curve 0-4 h after induction (AUC4h, not background-subtracted), DNA-recorder readout of cleavage of the substrate (dimensionless); higher = more cleavage of the substrate by the protease variant
Settings: temperature: 34 °C; time window: 0-4 h after rhamnose induction
Protocol: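 In vivo DNA recorder in E. coli TOP10(DE3) ΔrhaA at 34 °C. Each TEVp single-site mutant (parent TEVp 0) is paired with a single-site variant of the 7-mer TEVs (canonical ENLYFQ|S). The substrate sits between flexible linkers in a Bxb1-sfGFP-TEVs-SsrA fusion, so cleavage stabilises Bxb1 and speeds flipping of a recombination array, read by NGS. The value is the raw area under the fraction-flipped curve over 0-4 h after rhamnose induction (AUC4h), with ≥20 reads per time point. It is not background-subtracted; inactive controls average about 0.047.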
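Also: Bxb1 expression induced with 0.2% (w/v) L-rhamnose at OD600 near 0.5, cultures sampled hourly, flipped fraction per protease–substrate barcode pair counted by paired-end Illumina sequencing.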

Row | Variant | area with substrate ENLYFQC | area with substrate ENLYFQD | area with substrate ENLYFQF | area with substrate ENLYFQG | area with substrate ENLYFQH | area with substrate ENLYFQI | area with substrate ENLYFQK | area with substrate ENLYFQL | area with substrate ENLYFQM | area with substrate ENLYFQN | area with substrate ENLYFQP | area with substrate ENLYFQQ | area with substrate ENLYFQR | area with substrate ENLYFQS | area with substrate ENLYFQT | area with substrate ENLYFQW | area with substrate ENLYFQY | area with substrate ENLYFQV | area with substrate ENLYFQE
1 | MGESLFKGPRDYNPISSSICHLTNESDGHTTSLYGIGFGPFEITNKHLFRRNNGTLVVQSLHGVFKVKDTTTLQQHLVDGRDMIIIRMPKDFPPFPQKLKFREPQREERICLVTTNFQTKSMSSMVSDTSCTFPSGDGIFWKHWIQTKDGQCGSPLVSTRDGFIVGIHSASNFTNTNNYFTSVPKNFMELLTNQEAQQWVSGWRLNADSVLWGGHKVFMVKPEEPFQPVKEATQL [I42E] | 0.0745 | 0.0467 | 0.044 | 0.0476 | 0.0414 | 0.0438 | 0.0638 | 0.0388 | 0.064 | 0.0214 | 0.0244 | 0.0559 | 0.0392 | 0.0407 | 0.0418 | 0.044 | 0.0377 | – | –
2 | MGESLFKGPRDYNPISSSICHLTNESDGHTTSLYGIGFGPFMITNKHLFRRNNGTLVVQSLHGVFKVKDTTTLQQHLVDGRDMIIIRMPKDFPPFPQKLKFREPQREERICLVTTNFQTKSMSSMVSDTSCTFPSGDGIFWKHWIQTKDGQCGSPLVSTRDGFIVGIHSASNFTNTNNYFTSVPKNFMELLTNQEAQQWVSGWRLNADSVLWGGHKVFMVKPEEPFQPVKEATQL [I42M] | 0.105 | 0.0472 | 0.0684 | 0.15 | 0.0722 | 0.0522 | 0.0723 | 0.0871 | 0.0832 | 0.0805 | – | – | – | 0.097 | 0.0626 | – | 0.08 | 0.0605 | –
3 | MGESLFKGPRDYNPISSSICHLTNESDGHTTSLYGIGFGPFIITNDHLFRRNNGTLVVQSLHGVFKVKDTTTLQQHLVDGRDMIIIRMPKDFPPFPQKLKFREPQREERICLVTTNFQTKSMSSMVSDTSCTFPSGDGIFWKHWIQTKDGQCGSPLVSTRDGFIVGIHSASNFTNTNNYFTSVPKNFMELLTNQEAQQWVSGWRLNADSVLWGGHKVFMVKPEEPFQPVKEATQL [K46D] | 0.0632 | 0.0447 | 0.0454 | 0.0585 | 0.0545 | 0.0592 | – | 0.0531 | 0.0549 | – | – | – | 0.0699 | 0.0586 | 0.0623 | – | 0.0563 | 0.0675 | –
4 | MGESLFKGPRDYNPISSSICHLTNESDGHTTSLYGIGFGPFIITNKHLSRRNNGTLVVQSLHGVFKVKDTTTLQQHLVDGRDMIIIRMPKDFPPFPQKLKFREPQREERICLVTTNFQTKSMSSMVSDTSCTFPSGDGIFWKHWIQTKDGQCGSPLVSTRDGFIVGIHSASNFTNTNNYFTSVPKNFMELLTNQEAQQWVSGWRLNADSVLWGGHKVFMVKPEEPFQPVKEATQL [F49S] | 0.0471 | – | 0.0497 | 0.0626 | 0.0424 | 0.0467 | 0.062 | 0.0459 | 0.0538 | – | – | – | 0.0532 | 0.0604 | 0.0567 | 0.047 | – | – | –
5 | MGESLFKGPRDYNPISSSICHLTNESDGHTTSLYGIGFGPFIITNKHLFQRNNGTLVVQSLHGVFKVKDTTTLQQHLVDGRDMIIIRMPKDFPPFPQKLKFREPQREERICLVTTNFQTKSMSSMVSDTSCTFPSGDGIFWKHWIQTKDGQCGSPLVSTRDGFIVGIHSASNFTNTNNYFTSVPKNFMELLTNQEAQQWVSGWRLNADSVLWGGHKVFMVKPEEPFQPVKEATQL [R50Q] | 0.148 | 0.0825 | 0.0771 | 0.124 | 0.097 | 0.0777 | 0.0811 | 0.0643 | 0.0978 | – | 0.0595 | – | 0.0502 | 0.117 | 0.0732 | 0.0827 | 0.0603 | – | –
6 | MGESLFKGPRDYNPISSSICHLTNESDGHTTSLYGIGFGPFIITNKHLFRGNNGTLVVQSLHGVFKVKDTTTLQQHLVDGRDMIIIRMPKDFPPFPQKLKFREPQREERICLVTTNFQTKSMSSMVSDTSCTFPSGDGIFWKHWIQTKDGQCGSPLVSTRDGFIVGIHSASNFTNTNNYFTSVPKNFMELLTNQEAQQWVSGWRLNADSVLWGGHKVFMVKPEEPFQPVKEATQL [R51G] | 0.112 | – | 0.0882 | 0.0992 | – | – | – | 0.0626 | 0.0872 | 0.0947 | – | 0.0875 | 0.0646 | 0.113 | – | 0.0758 | – | 0.0616 | –
7 | MGESLFKGPRDYNPISSSICHLTNESDGHTTSLYGIGFGPFIITNKHLFRRNNFTLVVQSLHGVFKVKDTTTLQQHLVDGRDMIIIRMPKDFPPFPQKLKFREPQREERICLVTTNFQTKSMSSMVSDTSCTFPSGDGIFWKHWIQTKDGQCGSPLVSTRDGFIVGIHSASNFTNTNNYFTSVPKNFMELLTNQEAQQWVSGWRLNADSVLWGGHKVFMVKPEEPFQPVKEATQL [G54F] | 0.0639 | – | – | – | 0.0685 | – | – | – | – | 0.0652 | – | – | 0.05 | 0.075 | 0.0595 | – | 0.0478 | 0.0382 | –
8 | MGESLFKGPRDYNPISSSICHLTNESDGHTTSLYGIGFGPFIITNKHLFRRNNGKLVVQSLHGVFKVKDTTTLQQHLVDGRDMIIIRMPKDFPPFPQKLKFREPQREERICLVTTNFQTKSMSSMVSDTSCTFPSGDGIFWKHWIQTKDGQCGSPLVSTRDGFIVGIHSASNFTNTNNYFTSVPKNFMELLTNQEAQQWVSGWRLNADSVLWGGHKVFMVKPEEPFQPVKEATQL [T55K] | 0.148 | 0.0727 | – | 0.107 | 0.0831 | 0.0548 | 0.0638 | 0.0606 | 0.0921 | 0.0808 | 0.0546 | – | 0.0611 | 0.103 | 0.0604 | – | 0.0741 | 0.0623 | –
9 | MGESLFKGPRDYNPISSSICHLTNESDGHTTSLYGIGFGPFIITNKHLFRRNNGTLCVQSLHGVFKVKDTTTLQQHLVDGRDMIIIRMPKDFPPFPQKLKFREPQREERICLVTTNFQTKSMSSMVSDTSCTFPSGDGIFWKHWIQTKDGQCGSPLVSTRDGFIVGIHSASNFTNTNNYFTSVPKNFMELLTNQEAQQWVSGWRLNADSVLWGGHKVFMVKPEEPFQPVKEATQL [V57C] | 0.0888 | – | 0.109 | 0.0748 | 0.101 | – | 0.0593 | 0.0647 | – | – | – | – | – | 0.099 | 0.0461 | 0.0733 | 0.0684 | 0.07 | 0.0583
